Measurements as given in PubChem BioAssay AID588855 (National Center for Advancing Translational Sciences (NCATS), 2011).
“And” between values parts separate entries of the source, which are not always exact repeats. Identical values can stand only once. Among all 410,000 compounds or so, about 5,000 (1.2%) were called active. This list was built around the results that the source calls inconclusive (neither active nor inactive); the mix of calls is not that of the screen. Calls come from the whole dose curve; as a rule, active = well fitted inhibition curve with a large enough effect; inconclusive = small, poorly fitted or top-dose-only effect; inactive = no such curve, though single readings can be large or run the other way. Potencies beside an inconclusive call are fits to weak or partial responses and may not hold up.
% is set by controls: 0 for no effect and ±100 for the full control effect; potency is the fitted concentration of half-maximal effect; tags give direction and shape of the fitted curve.

Experiment: qHTS for Inhibitors of TGF-b; note: nearly all actives have a fitted effect of over 65% in size
Settings: HepG2 CAGA-GFP TGF-b/SMAD3 reporter, GFP fluorescence, 18 h, TGF-beta stimulated, 500 pg/mL final; series mostly up to 46.1 µM; activity, negative = inhibition: at the top concentration
How it was run: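 TGF-beta reporter screen: HEPG2 CAGA-GFP, 1% FBS, 500 pg/mL TGF-beta final, 18 h; per-cell GFP summed per well; curves fitted and categorized by class.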
For `CCOC1=C2[C@H](c3cccs3)N(S(=O)(=O)c3ccc(C)cc3)C[C@H]2n2c(=O)n(-c3ccccc3)c(=O)n2C1`, the “activity, negative = inhibition” value was inactive: -26%. In the case of `O=C(c1cccc([N+](=O)[O-])c1)N1CCN(C/C=C/c2ccccc2)CC1`, the Potency is reported as inconclusive: 11.2 µM [inhibitor, partial curve, poor fit]. In the case of `COc1ccccc1NC(=O)c1cc2c(=O)oc3ccc(C)cc3c2s1`, the “activity, negative = inhibition” value is reported as inactive: -1.2%. For `O=C(Nc1ccc(Cl)cc1)N1CCCN(Cc2ccc(F)cc2)C1`, the Potency was inconclusive: 35.5 µM [inhibitor, single point]. For `COc1cccc(COCC(O)CN2CCC(C(N)=O)CC2)c1` (configuration not stated), the Potency was inconclusive: 35.5 µM [inhibitor, partial curve, poor fit]. For `Cc1ccc(NC(=O)CSc2nc3c(oc4ccccc43)c(=O)n2-c2ccc(F)cc2)c(C)c1`, the Potency was inconclusive: 0.112 µM [inhibitor, full curve, poor fit]. In the case of `O=S(=O)(c1ccc2c(c1)OCCO2)N1CCN(S(=O)(=O)c2c(F)cc(F)cc2F)CC1`, the Potency is reported as inconclusive: 3.98 µM [inhibitor, single point]. In the case of `CCc1ccccc1NC(=O)Nc1cccn(Cc2ccccc2F)c1=O`, the “activity, negative = inhibition” value is reported as inactive: -8.4%. With `CCOC(=O)C1=C[C@@H](CC)N(S(=O)(=O)c2ccc([N+](=O)[O-])cc2)[C@H]1c1ccccc1` the Potency was inconclusive: 0.1 µM [inhibitor, full curve, poor fit]. For `Oc1ccc(Cl)cc1C1C=C(c2ccc3c(c2)OCO3)NC(c2ccc(F)c(Br)c2)N1` (configuration not stated), the Potency was active: 10 µM. With `COc1ccc(-c2c3c(nc4sc5c(Cl)nc(C)nc5c24)CCC3)cc1` the “activity, negative = inhibition” value was inactive: 3.03%. For `Cc1onc(-c2ccccc2)c1C(=O)N/N=C/c1cc(Br)c(Br)o1`, the Potency was inconclusive: 35.5 µM [inhibitor, single point]. In the case of `CN(C)CCNC(=O)c1ccc(-n2c(-c3ccccc3)cc3c2CCCC3)cc1`, the Potency is reported as inconclusive: 5.01 µM [inhibitor, full curve, poor fit]. With `O=C(c1ccco1)N1N=C(c2ccco2)CC1c1ccc(Cl)cc1Cl` (configuration not stated) the Potency was inconclusive: 35.5 µM [inhibitor, single point]. In the case of `COc1cc(C(=O)NC(=S)Nc2ccc3ccccc3c2)cc(OC)c1OC`, the “activity, negative = inhibition” value is reported as inactive: -18.2%. In the case of `COc1ccc(NS(=O)(=O)c2cc(C(=O)N3CCN(C/C=C/c4ccccc4)CC3)ccc2C)cc1`, the Potency is reported as inconclusive: 10 µM [inhibitor, single point]. For `CCOC(=O)c1c(NC(=O)CS(=O)(=O)c2ccc(C)cc2)sc2c1CCCCC2`, the Potency was inconclusive: 0.199 µM [inhibitor, full curve, poor fit]. With `O=C(CNC(=O)c1ccccc1)NCC(=O)OCc1ccccc1Cl` the Potency was inconclusive: 35.5 µM [inhibitor, single point]. For `COc1ccc(-c2cc(C)no2)cc1S(=O)(=O)N1CCCN(Cc2ccccc2Cl)C1`, the “activity, negative = inhibition” value was inactive: -18%. With `Cc1ccc(S(=O)(=O)N2CCCc3cc(NS(=O)(=O)c4ccc(F)c(C)c4)ccc32)cc1` the Potency was inconclusive: 22.4 µM [inhibitor, single point]. With `COCCn1c(SCc2nc3ccccc3s2)nc2ccccc21` the “activity, negative = inhibition” value was inactive: -0.101%. With `Cc1onc(-c2ccccc2)c1C(=O)OCC(=O)Nc1cccc(Cl)c1` the Potency was inconclusive: 35.5 µM [inhibitor, single point]. With `CC1CCN(c2nc3ccc(C(=O)N4CCN(Cc5ccccc5)CC4)cc3s2)CC1` the Potency was inconclusive: 35.5 µM [inhibitor, partial curve, poor fit]. In the case of `COc1ccc2c(c1)C1=NN(/C(C)=C\C(C)=O)C(c3ccccc3)C1CC2` (configuration not stated), the Potency is reported as inconclusive: 7.94 µM [inhibitor, single point]. In the case of `C/C(=N\NC(=O)C(c1ccccc1)c1ccccc1)c1ccccn1`, the Potency is reported as inconclusive: 15.8 µM [inhibitor, single point]. With `S=C(NCc1ccco1)Nc1ccc(Oc2ccccc2)cc1` the Potency was inconclusive: 25.1 µM [inhibitor, single point]. In the case of `Cc1cc(N2CCN(c3ccc([N+](=O)[O-])c4cccnc34)CC2)c2ccccc2n1`, the Potency is reported as inconclusive: 25.1 µM [inhibitor, single point]. For `Brc1cc(Br)c2ncnc(N3CCCCC3)c2c1`, the Potency was active: 6.31 µM. With `COc1cccc(C(=O)NCCSc2c(-c3ccc(F)cc3)[nH]c3ccccc23)c1OC` the Potency was inconclusive: 17.8 µM [inhibitor, single point]. In the case of `FC(F)(F)c1cccc(NC(=S)Nc2ccc(Cl)c(Cl)c2)c1`, the Potency is reported as inconclusive: 17.8 µM [inhibitor, single point]. With `Cc1ccc(CNC(=O)C2CCCN(S(=O)(=O)c3ccc4c(c3)oc(=O)n4C)C2)cc1` (configuration not stated) the Potency was inconclusive: 22.4 µM [inhibitor, single point]. In the case of `O=c1c2c(nc3nc(SCc4ccccc4)[nH]n13)CCC2`, the “activity, negative = inhibition” value is reported as inactive: -14.6%. For `CCCCc1ccc(/C=C2/C(=O)ON=C2c2ccccc2)s1`, the Potency was inconclusive: 35.5 µM [inhibitor, single point]. For `Cc1ccc(-c2cc3nc(NCCOc4ccccc4Cl)n(C)c(=O)c3s2)cc1`, the “activity, negative = inhibition” value was inactive: 11.1%. In the case of `CCC(=O)N1c2ccc(S(=O)(=O)N3CCN(c4ccccc4)CC3)cc2CC1C` (configuration not stated), the Potency is reported as inconclusive: 22.4 µM [inhibitor, single point]. For `Cc1ccc(C2=NN3C(C2)c2ccccc2OC32C(=O)Nc3ccccc32)cc1` (configuration not stated), the Potency was inconclusive: 35.5 µM [inhibitor, single point]. For `COc1ccc(Nc2cc(C)nc3nc(C)nn23)cc1Cl`, the “activity, negative = inhibition” value was inactive: 3.38%. With `Cc1ccc(C(=O)NCCn2c(C)cc3ccccc32)cc1C` the Potency was inconclusive: 8.91 µM [inhibitor, partial curve, poor fit]. In the case of `COCCNC(=O)/C(C#N)=C/c1ccccc1Br`, the “activity, negative = inhibition” value is reported as inactive: 2.73%. For `CCc1cc(C(=O)Nc2cc(S(=O)(=O)N(CC)CC)ccc2N2CCOCC2)sc1C`, the Potency was inconclusive: 12.6 µM [inhibitor, single point]. In the case of `O=C(CSc1nc(-c2ccccc2)no1)N1CCN(c2ccccc2F)CC1`, the Potency is reported as inconclusive: 28.2 µM [inhibitor, single point]. In the case of `CN(C(=O)c1ccc(F)cc1)c1ccc(OCC(=O)Nc2ccccc2C(=O)O)cc1`, the “activity, negative = inhibition” value is reported as inactive: -8.79%. With `Cc1ccc(NC(=S)NCc2ccccc2)cc1C` the “activity, negative = inhibition” value was inactive: 1.42%. With `COc1ccc(C2/C=C\CN(CC(C)C)C(Cc3ccccc3)C(=O)N2Cc2ccc(F)cc2)cc1` (configuration not stated) the “activity, negative = inhibition” value was inactive: -21.6%. With `COc1ccc(CC(=O)NNS(=O)(=O)c2ccccc2[N+](=O)[O-])cc1OC` the Potency was inconclusive: 14.1 µM [inhibitor, single point]. In the case of `CCC(C)[C@@H](N)C(=O)N/N=C/c1cccc2nccnc12` (some centres not stated), the “activity, negative = inhibition” value is reported as inactive: 24.5%. With `Cc1oc2ccc(O)c(CN(C)Cc3ccccc3)c2c1C(=O)Nc1cccc(C(F)(F)F)c1` the Potency was inconclusive: 14.1 µM [inhibitor, partial curve, poor fit]. In the case of `Cc1ccc(C)c(NC(=S)NCCN(C2CCCCC2)C2CCCC2)c1`, the “activity, negative = inhibition” value is reported as inactive: -1.12%. For `COc1ccc(C(=O)N/N=C/c2cccc3cccnc23)cc1`, the Potency was inconclusive: 20 µM [inhibitor, partial curve, poor fit]. With `COc1ccc(-c2n[nH]c(=S)n2CC(C)C)cc1` the Potency was inconclusive: 25.1 µM [inhibitor, single point]. With `COc1cc(NC(=O)Cn2c(=O)oc3cc(S(=O)(=O)N4CCCCCC4)ccc32)cc(OC)c1` the Potency was inconclusive: 5.62 µM [inhibitor, single point]. In the case of `COc1ccc(-c2cc(C(F)(F)F)n3nc(C(=O)N4CCOCC4)nc3n2)cc1`, the Potency is reported as inconclusive: 25.1 µM [inhibitor, single point]. For `Nc1nc(CN2CCOCC2)cs1`, the “activity, negative = inhibition” value was inactive: -3.23%. For `Cc1cc(Nc2cc(Cl)nc(Sc3ccc(NC(=O)C4CC4)cc3)n2)n[nH]1`, the Potency was inconclusive: 8.91 µM [inhibitor, partial curve, poor fit]. With `CC(NC(=O)c1ccco1)c1nc(-c2ccc(C(C)(C)C)cc2)no1` (configuration not stated) the “activity, negative = inhibition” value was inactive: -3.42%. For `CC(C)(C)OC(=O)NCCCC[C@H](NC(=O)c1nc[nH]c1C(=O)NC(c1ccccc1)c1ccccc1)C(=O)OC(C)(C)C`, the Potency was inconclusive: 3.55 µM [inhibitor, full curve, poor fit]. With `COc1ccc([C@H]2C[C@@H](n3cc(C4CC4)nn3)[C@H](O)CN2CC2CCCCC2)cc1` the Potency was inconclusive: 25.1 µM [inhibitor, single point]. With `CCOc1ccc(-n2c(CCC(=O)O)ccc2-c2ccc(Br)cc2)cc1` the “activity, negative = inhibition” value was inactive: -11.5%. With `Cc1ccccc1/C=C1\Oc2ccccc2C1=O` the Potency was inconclusive: 12.6 µM [inhibitor, single point]. In the case of `CC1Nc2ncnc(N3CCc4ccccc4C3)c2N(Cc2ccccc2)C1=O` (configuration not stated), the Potency is reported as inconclusive: 20 µM [inhibitor, partial curve, poor fit]. For `CN(C)c1ccc(C=C2c3ccccc3-c3ccccc32)cc1`, the “activity, negative = inhibition” value was inactive: -2.63%. For `CS(=O)(=O)c1ccc2nc(NC(=O)CN3C(=O)NC4(CCCC4)C3=O)sc2c1`, the “activity, negative = inhibition” value was inactive: -24.2%. With `Cc1ccc(C(C)C)c(OCC(=O)Nc2cccc(NC(=O)c3ccco3)c2)c1` the Potency was inconclusive: 35.5 µM [inhibitor, single point]. In the case of `OC(c1ccc(Cl)c(F)c1)c1ncc(-c2cccc(F)c2)[nH]1` (configuration not stated), the Potency is reported as inconclusive: 35.5 µM [inhibitor, single point]. With `C=CCN1C(=O)C(Cc2ccc(OC)cc2)S/C1=N/N=C/c1ccco1` (configuration not stated) the “activity, negative = inhibition” value was inactive: -6.88%. For `Cc1ccc(-c2nc3cccnc3s2)cc1NC(=O)C(C)C`, the “activity, negative = inhibition” value was inactive: 22.1%. With `Cc1ccc(-c2ccc(=O)n(Cc3cc(C)ccc3C)n2)cc1` the Potency was inconclusive: 22.4 µM [inhibitor, partial curve, poor fit] and inconclusive: 35.5 µM [inhibitor, single point].
